# In paper PMC12040169 (PLOS Biology, 2025):
# The other results are listed elsewhere or left out.
# System: T1, C. trachomatis L2/434/Bu expressing GFP (CTL2-GFP)
# T1 construct: L2/434/Bu GFP intracellular growth in HeLa cells
# Design: species or system HeLa; C. trachomatis total inclusion area by high-content imaging, normalised to DMSO
# Details: total inclusion area; 28.5 h, 10 µM; inhibitor
# Method in brief: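 High-content images of fixed, Hoechst-stained infected cultures supply inclusion area and count (growth) plus nuclei number (viability), complementing bulk GFP/resorufin fluorescence. MIC determination is unchanged from the primary assay.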
row,Compound,% of control remaining
1,CC(C)NC(=O)c1cc(C2CN(C(=O)CCc3ccccc3F)CCO2)nc2ccccc12 (centres unmarked) [CBK285893],94.1011
2,COC(=O)c1ccsc1NS(=O)(=O)Cc1ccccc1 [CBK039067],106.143
3,CC(C)Nc1nc(NC(C)C)nc(N(C)C(N)=O)n1 [CBK027732],123.812
4,CS(=O)(=O)Nc1nccnc1OC1CCNCC1 [CBK074265T],114.251
5,Cc1ccc(S(=O)(=O)NCCNc2ccc(Cl)cc2[N+](=O)[O-])cc1 [CBK263784],67.0956
6,COc1ccc(CCNc2ccccc2[N+](=O)[O-])cc1OC [CBK074819],76.0104
7,COC(=O)COc1ccc2cccc(-n3cnnn3)c2c1 [CBK270173],105.457
8,COc1ccc(C(=O)N2C[C@@H]3C[C@H](C2)c2ccc(-c4cccnc4)c(=O)n2C3)cc1 [CBK289182],88.9486
9,CC(C)(C)c1nnc(NCc2ccccc2)s1 [CBK074922],54.9405
10,Cc1cc(C(=O)N2CCCC2c2ccc[nH]2)c2c(C)noc2n1 (centres unmarked) [CBK305245],63.5581
11,Cc1ccc(C(C)C)cc1OCC(=O)N/N=C\c1cc([N+](=O)[O-])ccc1O [CBK261206],83.8772
12,CCOC(=O)CN1CCCN(c2nccc(OCC3COc4ccccc4O3)n2)CC1 (centres unmarked) [CBK083975],73.288
13,CCn1nc(C)c(C(C)NC(=O)c2c3c(nn2CC)CCCC3)c1C (centres unmarked) [CBK282077],91.6685
14,CN(C)S(=O)(=O)N1CCN(c2ccnc3cc(Cl)ccc23)CC1 [CBK269785],93.3615
15,O=C(O)c1ccc(CNC(=S)NCC2CCCO2)cc1 (centres unmarked) [CBK266908],90.6691
16,CCNC(=O)Nc1ccc2c(-c3cccc(C(F)(F)F)c3)ccnc2n1 [CBK070678],104.157
17,COC(=O)C1(Cc2cc(-c3ccccc3F)no2)CCOCC1 [CBK285182],93.3133
18,COc1ccc(NC(=O)c2c(C)[nH]c(=O)[nH]c2=S)cc1OC [CBK115517],110.4
19,O=C(O)CSc1nc2cc(Cl)c(Cl)cc2nc1N1CCCC1 [CBK107863],96.3892
20,CN1CCC(Cc2nc(CC3CCCOC3)n(CC(F)(F)F)n2)CC1 (centres unmarked) [CBK306801],89.4432
21,O=C1N/C(=N\c2ccccn2)SC1Cc1ccc(Br)cc1 (centres unmarked) [CBK263109],102.722
22,Nc1ccc(NC(=O)c2ccc(NC(=O)c3cnc(-c4ccccc4)c(-c4ccncc4)c3)cc2)cc1 [CBK037463],86.7528
23,COc1ccccc1N1CCN(C(=O)c2snnc2C)CC1 [CBK057792],59.9902
24,C=CCNC(=O)c1cc(Br)cnc1NCC1CC1 [CBK076424],125.203
25,O=C(NC1CC1)c1ccc(-c2cnc3[nH]c(=O)n(CC4CCOCC4)c3n2)cc1 [CBK064890],112.327

row,Compound,% of control remaining
1,O=C(c1cc(S(=O)(=O)N2CCCCC2)c(Cl)cc1N1CCOCC1)N1CCOCC1 [CBK263400],63.9882
2,O=C(COc1ccccc1)N1CCC(Oc2nccnc2OCc2ccc(Cl)c(Cl)c2)CC1 [CBK160718],74.6972
3,COCCCOc1nc2ccccc2nc1C(F)(F)F [CBK115803],88.1071
4,O=C(O)C(Cc1cc2ccccc2[nH]1)N1C(=O)C2CC=C(Cl)CC2C1=O (centres unmarked) [CBK266216],107.748
5,O=C(c1cc(C(F)(F)F)cc(C(F)(F)F)c1)N1CCC(O)(c2ccc(Cl)cc2)CC1 [CBK061972],95.5603
6,Cc1nc2nc(N)nn2c(C)c1CCC(=O)NCc1ccccc1F [CBK305860],23.8038
7,O=C(c1ccco1)N1CCC(c2onc3c2CCCCC3)CC1 [CBK284486],94.5722
8,O=C1NCCNC(=O)C2(C/C=C/COc3ccccc31)CCCN(Cc1cscn1)C2 (centres unmarked) [CBK292125],92.3339
9,COc1ccc(C(=O)N2CC[C@H]3CC(=O)N(CCN4CCNC4=O)CC[C@H]3C2)cc1 [CBK288795],78.9029
10,CN1C[C@H](C(N)=O)[C@@H](c2ccc(CN(C)C(=O)c3cccc(Oc4ccccc4)c3)cc2)C1 [CBK285572],101.465
11,CC(C)(CNC(=O)c1ccc(=O)n(CC(=O)NC2CCCCC2)c1)c1ccccc1F [CBK285983],96.7224
12,O=C(CSc1ncnc2sc3c(c12)CCC3)Nc1nsc(-c2ccc(Cl)cc2)n1 [CBK266484],86.5153
13,CCn1cc(S(=O)(=O)N2CCN(c3cccc(C(F)(F)F)c3)CC2)cn1 [CBK270328],99.5105
14,Cc1c(Cl)cccc1S(=O)(=O)NC1=NC(=O)C(CC(=O)Nc2ccccc2Cl)S1 (centres unmarked) [CBK200043],96.4301
15,CCOC(=O)c1[nH]c2ccccc2c1NC(=O)COc1ccc(Cl)cc1Cl [CBK160134],87.7193
16,CCOC(=O)c1[nH]c(=O)[nH]c1CSc1ccccn1 [CBK027725],131.544
17,Cc1ccc(NC(=O)CSc2cnn[nH]2)cc1 [CBK270136],91.9979
18,O=C(O)c1ccc2c(c1)C(=O)N(c1cccc(/C=C/C(=O)c3cccc(N4C(=O)c5ccc(C(=O)O)cc5C4=O)c3)c1)C2=O [CBK261178],98.406
19,COc1ccccc1-n1nc(-c2ccncc2)nc1C1CCOCC1 [CBK307229],88.2002
20,CC(C)C(=O)Nc1ccc2[nH]cc(C(C(=O)O)N3CCN(c4ccccc4)CC3)c2c1 (centres unmarked) [CBK286645],101.851
21,CN(CCN(C)C(=O)c1cc2sccc2[nH]1)CC(F)F [CBK306014],117.929
22,O=C(Nc1ccc(F)cc1)c1cccc(NS(=O)(=O)c2cc(Br)c(Cl)s2)c1 [CBK050410],111.941
23,O=C(NCCc1c[nH]cn1)N1CCN(Cc2ccccc2)CC1 [CBK155629],94.86
24,O=C(c1ccc(-c2cncc(-c3ccc(O)cc3)n2)cc1Cl)N1CCOCC1 [CBK123790],93.6935
25,CCC(CN1CCN(C)CC1)NC(=O)C1(c2cccc(F)c2)CC1 (centres unmarked) [CBK282786],75.5577
